# In all, about 2,900 compounds were measured (“NF-kB SEAP reporter activity, fold change vs agonist alone”: median about 0.99, highest 2% from about 2.6 on). The list shows a part of the results.
# Legend:
# RAW-Dual [1] = experiment: NF-kB SEAP reporter activity, fold change vs agonist alone; higher = enhanced NF-kB activity
# In short: (§1)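 Cytotoxic wells were those whose IncuCyte confluency was below 70% of agonist controls in both mask sets. The cells were RAW-Dual macrophages at 50,000 cells/well in DMEM on 384-well plates, dosed with 50 nL of library stock by pin tool, stimulated with a PRR agonist 1 h later, and kept at 37 °C, 5% CO2 for 20 hours. IRF and NF-κB reporter activity, as fold change over agonist-alone wells, came from supernatant read by QuantiLuc luminescence and QuantiBlue absorbance, respectively.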
# RAW-Dual [2] = experiment: NF-kB SEAP reporter activity, fold change vs agonist alone; cytotoxicity flag (confluency mask): not cytotoxic; higher = enhanced NF-kB activity
# In short: as §1
# RAW-Dual [3] = experiment: NF-kB SEAP reporter activity, fold change vs agonist alone; cytotoxicity flag (confluency mask): cytotoxic (confluency <70% of control); higher = enhanced NF-kB activity
# In short: as §1
# [4] = library stock concentration (final ~1000-fold dilution): 10 mM, cytotoxicity flag (confluency mask): not cytotoxic, agonist: Imiquimod (TLR7) […]
# [5] = library stock concentration (final ~1000-fold dilution): 10 mM, cytotoxicity flag (confluency mask): not cytotoxic, agonist: MPLA (TLR4) […]
# [6] = agonist: ODN 1826 (TLR9) 0.5 ug/mL
# [7] = agonist: Pam2CSK4 (TLR2/6) 0.1 ug/mL
# [8] = agonist: Pam3CSK4 (TLR2/1) 0.1 ug/mL
compound,measurement,setting,value
O=C(O)c1cccnc1Nc1cccc(C(F)(F)F)c1,NF-kB SEAP reporter activity,RAW-Dual [1]; [4],0.957
same,NF-kB SEAP reporter activity,RAW-Dual [1]; [5],0.922
O=C(O)c1cccnc1Nc1cccc(C(F)(F)F)c1 (library stock concentration (final ~1000-fold dilution): 10 mM),NF-kB SEAP reporter activity,RAW-Dual [2]; agonist: LPS (TLR4) 0.1 ug/mL,0.75
same,NF-kB SEAP reporter activity,RAW-Dual [2]; [6],0.783
same,NF-kB SEAP reporter activity,RAW-Dual [2]; [7],0.895
same,NF-kB SEAP reporter activity,RAW-Dual [2]; [8],0.935
O=c1ccc2ccc(O)cc2o1,NF-kB SEAP reporter activity,RAW-Dual [1]; [4],1.12
same,NF-kB SEAP reporter activity,RAW-Dual [1]; [5],1.05
O=c1ccc2ccc(O)cc2o1 (library stock concentration (final ~1000-fold dilution): 10 mM),NF-kB SEAP reporter activity,RAW-Dual [2]; agonist: LPS (TLR4) 0.1 ug/mL,1.06
same,NF-kB SEAP reporter activity,RAW-Dual [2]; [6],1.04
same,NF-kB SEAP reporter activity,RAW-Dual [2]; [7],0.924
same,NF-kB SEAP reporter activity,RAW-Dual [2]; [8],1.18
O=c1ccc2ccc(OCCCCN3CCN(c4cccc5sccc45)CC3)cc2[nH]1 (library stock concentration (final ~1000-fold dilution): 10 mM),NF-kB SEAP reporter activity,RAW-Dual [2]; agonist: LPS (TLR4) 0.1 ug/mL,1.94
same,NF-kB SEAP reporter activity,RAW-Dual [2]; [6],1.02
same,NF-kB SEAP reporter activity,RAW-Dual [2]; [7],1.65
same,NF-kB SEAP reporter activity,RAW-Dual [2]; [8],1.11
O=c1ccc2ccc(OCCCCN3CCN(c4cccc5sccc45)CC3)cc2[nH]1,NF-kB SEAP reporter activity,RAW-Dual [1]; [5],1.06
C[N+](C)(C)CCCCCC[N+](C)(C)C (library stock concentration (final ~1000-fold dilution): 10 mM water),NF-kB SEAP reporter activity,RAW-Dual [2]; agonist: LPS (TLR4) 0.1 ug/mL,1.08
same,NF-kB SEAP reporter activity,RAW-Dual [2]; [6],1.14
same,NF-kB SEAP reporter activity,RAW-Dual [2]; [7],1.24
same,NF-kB SEAP reporter activity,RAW-Dual [2]; [8],1
C[N+](C)(C)CCCCCC[N+](C)(C)C,NF-kB SEAP reporter activity,"RAW-Dual [1]; library stock concentration (final ~1000-fold dilution): 10 mM water, cytotoxicity flag (confluency mask): not cytotoxic, agonist: Imiquimod (TLR7) […]",0.906
same,NF-kB SEAP reporter activity,"RAW-Dual [1]; library stock concentration (final ~1000-fold dilution): 10 mM water, cytotoxicity flag (confluency mask): not cytotoxic, agonist: MPLA (TLR4) […]",1.02
Cc1ccc(NC(=O)Nc2cc(-c3ccccc3-c3nnn[nH]3)ccc2N(CC(C)C)CC(C)C)cc1,NF-kB SEAP reporter activity,"RAW-Dual [1]; library stock concentration (final ~1000-fold dilution): 10 mM, cytotoxicity flag (confluency mask): cytotoxic (confluency <70% of control), agonist: Imiquimod (TLR7) […]",0.81
same,NF-kB SEAP reporter activity,"RAW-Dual [1]; library stock concentration (final ~1000-fold dilution): 10 mM, cytotoxicity flag (confluency mask): cytotoxic (confluency <70% of control), agonist: MPLA (TLR4) […]",1.25
Cc1ccc(NC(=O)Nc2cc(-c3ccccc3-c3nnn[nH]3)ccc2N(CC(C)C)CC(C)C)cc1 (library stock concentration (final ~1000-fold dilution): 10 mM),NF-kB SEAP reporter activity,RAW-Dual [3]; agonist: LPS (TLR4) 0.1 ug/mL,1.16
same,NF-kB SEAP reporter activity,RAW-Dual [3]; [6],0.54
same,NF-kB SEAP reporter activity,RAW-Dual [3]; [7],0.207
same,NF-kB SEAP reporter activity,RAW-Dual [3]; [8],0.333
Cn1cc(-c2ccc3ncc(Cc4ccc5ncccc5c4)n3n2)cn1 (library stock concentration (final ~1000-fold dilution): 10 mM),NF-kB SEAP reporter activity,RAW-Dual [2]; agonist: LPS (TLR4) 0.1 ug/mL,1.88
same,NF-kB SEAP reporter activity,RAW-Dual [2]; [6],1.35
same,NF-kB SEAP reporter activity,RAW-Dual [2]; [7],1.31
same,NF-kB SEAP reporter activity,RAW-Dual [2]; [8],1.47
Cn1cc(-c2ccc3ncc(Cc4ccc5ncccc5c4)n3n2)cn1,NF-kB SEAP reporter activity,RAW-Dual [1]; [4],1.37
same,NF-kB SEAP reporter activity,RAW-Dual [1]; [5],1.23
Cc1cc(NC(=O)Nc2ccc(N(C)C)cc2)c2cc(F)cc(F)c2n1,NF-kB SEAP reporter activity,RAW-Dual [1]; [4],0.989
same,NF-kB SEAP reporter activity,RAW-Dual [1]; [5],1.04
Cc1cc(NC(=O)Nc2ccc(N(C)C)cc2)c2cc(F)cc(F)c2n1 (library stock concentration (final ~1000-fold dilution): 10 mM),NF-kB SEAP reporter activity,RAW-Dual [2]; agonist: LPS (TLR4) 0.1 ug/mL,1.6
same,NF-kB SEAP reporter activity,RAW-Dual [2]; [6],1.17
same,NF-kB SEAP reporter activity,RAW-Dual [2]; [7],0.859
same,NF-kB SEAP reporter activity,RAW-Dual [2]; [8],1.05
CC(C)NCC(O)COc1ccc(CCOCC2CC2)cc1.Cl (stereo not drawn),NF-kB SEAP reporter activity,RAW-Dual [1]; [4],0.875
same,NF-kB SEAP reporter activity,RAW-Dual [1]; [5],0.894
CC(C)NCC(O)COc1ccc(CCOCC2CC2)cc1.Cl (stereo not drawn) (library stock concentration (final ~1000-fold dilution): 10 mM),NF-kB SEAP reporter activity,RAW-Dual [2]; agonist: LPS (TLR4) 0.1 ug/mL,1.18
same,NF-kB SEAP reporter activity,RAW-Dual [2]; [6],0.83
same,NF-kB SEAP reporter activity,RAW-Dual [2]; [7],1.02
same,NF-kB SEAP reporter activity,RAW-Dual [2]; [8],1.24
Cc1[nH]c2ccccc2c1CCNC(=O)c1cccs1 (library stock concentration (final ~1000-fold dilution): 10 mM),NF-kB SEAP reporter activity,RAW-Dual [2]; agonist: LPS (TLR4) 0.1 ug/mL,1
same,NF-kB SEAP reporter activity,RAW-Dual [2]; [6],1.06
same,NF-kB SEAP reporter activity,RAW-Dual [2]; [7],1.12
same,NF-kB SEAP reporter activity,RAW-Dual [2]; [8],0.991
Cc1[nH]c2ccccc2c1CCNC(=O)c1cccs1,NF-kB SEAP reporter activity,RAW-Dual [1]; [4],1.06
same,NF-kB SEAP reporter activity,RAW-Dual [1]; [5],1.11
CC(C)N(CCC(c1ccccc1)c1cc(CO)ccc1O)C(C)C (stereo not drawn) (library stock concentration (final ~1000-fold dilution): 10 mM),NF-kB SEAP reporter activity,RAW-Dual [2]; agonist: LPS (TLR4) 0.1 ug/mL,1.39
same,NF-kB SEAP reporter activity,RAW-Dual [2]; [6],0.944
same,NF-kB SEAP reporter activity,RAW-Dual [2]; [7],0.978
same,NF-kB SEAP reporter activity,RAW-Dual [2]; [8],1.07
CC(C)N(CCC(c1ccccc1)c1cc(CO)ccc1O)C(C)C (stereo not drawn),NF-kB SEAP reporter activity,RAW-Dual [1]; [4],0.971
same,NF-kB SEAP reporter activity,RAW-Dual [1]; [5],0.976
COc1ccc(/C=C/C(=O)O)cc1OC,NF-kB SEAP reporter activity,RAW-Dual [1]; [4],0.805
same,NF-kB SEAP reporter activity,RAW-Dual [1]; [5],1.05
COc1ccc(/C=C/C(=O)O)cc1OC (library stock concentration (final ~1000-fold dilution): 10 mM),NF-kB SEAP reporter activity,RAW-Dual [2]; agonist: LPS (TLR4) 0.1 ug/mL,1.43
same,NF-kB SEAP reporter activity,RAW-Dual [2]; [6],1.15
same,NF-kB SEAP reporter activity,RAW-Dual [2]; [7],1.15
same,NF-kB SEAP reporter activity,RAW-Dual [2]; [8],1.14
CC12CC3CC(C)(C1)CC(N)(C3)C2.Cl (library stock concentration (final ~1000-fold dilution): 10 mM),NF-kB SEAP reporter activity,RAW-Dual [2]; agonist: LPS (TLR4) 0.1 ug/mL,1.06
same,NF-kB SEAP reporter activity,RAW-Dual [2]; [6],0.741
same,NF-kB SEAP reporter activity,RAW-Dual [2]; [7],1.08
same,NF-kB SEAP reporter activity,RAW-Dual [2]; [8],0.948
CC12CC3CC(C)(C1)CC(N)(C3)C2.Cl,NF-kB SEAP reporter activity,RAW-Dual [1]; [4],0.618
same,NF-kB SEAP reporter activity,RAW-Dual [1]; [5],0.696
Cc1nc2ccc(-n3ncc(C(=O)c4cc5ccccc5[nH]4)c3N)cc2[nH]1,NF-kB SEAP reporter activity,RAW-Dual [1]; [4],0.618
same,NF-kB SEAP reporter activity,RAW-Dual [1]; [5],0.814
Cc1nc2ccc(-n3ncc(C(=O)c4cc5ccccc5[nH]4)c3N)cc2[nH]1 (library stock concentration (final ~1000-fold dilution): 10 mM),NF-kB SEAP reporter activity,RAW-Dual [2]; agonist: LPS (TLR4) 0.1 ug/mL,0.839
same,NF-kB SEAP reporter activity,RAW-Dual [2]; [6],0.395
same,NF-kB SEAP reporter activity,RAW-Dual [2]; [7],0.399
same,NF-kB SEAP reporter activity,RAW-Dual [2]; [8],0.427
COc1cc(C2CC(c3ccccc3)=NN2C(N)=S)cc(OC)c1OC (stereo not drawn) (library stock concentration (final ~1000-fold dilution): 10 mM),NF-kB SEAP reporter activity,RAW-Dual [2]; agonist: LPS (TLR4) 0.1 ug/mL,1.16
same,NF-kB SEAP reporter activity,RAW-Dual [2]; [6],1.25
same,NF-kB SEAP reporter activity,RAW-Dual [2]; [7],0.997
same,NF-kB SEAP reporter activity,RAW-Dual [2]; [8],1.13
COc1cc(C2CC(c3ccccc3)=NN2C(N)=S)cc(OC)c1OC (stereo not drawn),NF-kB SEAP reporter activity,RAW-Dual [1]; [4],1.58
same,NF-kB SEAP reporter activity,RAW-Dual [1]; [5],1.29

# From the supplement of paper PMC10037445
